Reference: the supplement of paper PMC3334620
Over roughly 33,000 sequences, “E-score (-0.5 to 0.5)” has its median near -0.016; the highest 2% begin near 0.31. Some of the results follow.

Each sequence was assayed against Cst6 (UniProt P40535) (assay: PBM E-score (8-mer binding enrichment) (E-score (-0.5 to 0.5)); higher = stronger / more preferred TF binding; most listed sequences are background and not binding sites). Conditions: protein concentration: 200 nM; construct: GST-DNA-binding domain.
Procedure, shortened: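 Each ungapped eight-base word and its reverse complement, pooled, received an E-score from the Universal PBM Analysis Suite. Underlying scans, normalised with masliner, recorded fluorescent anti-GST bound to GST-tagged yeast transcription factors. These were applied at about 100-200 nM to universal all-10-mer Agilent arrays double-stranded by primer extension.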

| Sequence | PBM E-score |
| --- | --- |
| ACATGTGA | 0.0989 |
| CAGGGTGG | -0.23 |
| CTGTTGAC | 0.153 |
| CAGATTTC | 0.00738 |
| ACAGTTTA | 0.0128 |
| CAAGTCAC | 0.0766 |
| GAGCACCC | -0.379 |
| GGGGATAC | -0.211 |
| CGCAACGC | 0.0646 |
| GCGCACAC | -0.137 |
| TCTCTACA | 0.0285 |
| GCGGTCCC | -0.242 |
| TTAGGGAA | -0.0124 |
| CAGAGAAC | -0.0614 |
| AGGCACGA | 0.117 |
| ATGAAAGC | 0.209 |
| CCTCGATA | 0.109 |
| AGTCTGGA | -0.139 |
| GCTTCCTA | -0.0171 |
| AACAAACG | 0.156 |
| ACGTGCCC | 0.0548 |
| GCCGCCCA | -0.122 |
| GACTGCCA | -0.0261 |
| AGTCAAAG | -0.062 |
| ACGCACAA | -0.0302 |

| Sequence | PBM E-score |
| --- | --- |
| AATGAAGG | -0.0754 |
| CCTAGAGC | -0.218 |
| CACGCCTA | -0.0609 |
| CGGATTAC | 0.0253 |
| GGCTTTCA | 0.222 |
| GTTTCACA | 0.173 |
| CGTTGGAG | -0.0858 |
| CGCCGCGA | 0.241 |
| GTTAACTA | 0.0802 |
| CGTCCCAA | -0.00272 |
| CTCACCCC | -0.0415 |
| CATCTCCC | -0.202 |
| AGGCCATG | -0.00333 |
| GCAAAAAC | 0.0554 |
| CTCAAGAC | -0.114 |
| ACCTATAG | -0.0739 |
| TCAGTAAA | 0.238 |
| CCTCATAC | 0.106 |
| AGTGACTA | 0.0534 |
| ACAGATGC | -0.0485 |
| AACCGACT | -0.142 |
| CGACTGCA | -0.0929 |
| AACAAACC | 0.11 |
| CTGTAAGA | 0.0332 |
| CCGTCTAA | -0.109 |

| Sequence | PBM E-score |
| --- | --- |
| AAGGCGAG | -0.223 |
| GTTGAAAA | 0.0847 |
| ATGGCCAC | -0.208 |
| TAAGAGGA | -0.0598 |
| ATGAAAAT | 0.295 |
| CAGTTCAG | -0.0708 |
| AAAATTAC | 0.257 |
| CTCTAGAA | -0.112 |
| GGGAGAGA | -0.408 |
| CCTTGGGC | -0.166 |
| AGCTTTAG | -0.138 |
| TCATATAA | 0.305 |
| TAAATTCA | 0.0911 |
| CCACCAGA | -0.00821 |
| GTACATCA | 0.275 |
| ATCGAATA | 0.00254 |
| AGCTGCCT | -0.25 |
| ACCGTGTA | 0.0493 |
| CAATCCAC | 0.0953 |
| TAAGCTGA | 0.113 |
| AACCGGTA | -0.104 |
| TAACCTAA | 0.158 |
| CTGAAGAA | -0.261 |
| CTCACCAC | -0.0767 |
| GAATTGGC | -0.121 |

| Sequence | PBM E-score |
| --- | --- |
| ATAAACAT | 0.208 |
| GTATGCAA | 0.177 |
| CGTGCAAA | 0.0895 |
| GGCAAACA | 0.0939 |
| CCAGATCC | -0.293 |
| CCCATTAG | -0.375 |
| ATATGAGA | 0.0308 |
| ACTAATTG | 0.094 |
| GAACGTGC | -0.175 |
| ACGTCGAG | -0.115 |
| GAGAGTGC | -0.06 |
| CGACGTAC | 0.139 |
| CGTAGACG | 0.0295 |
| CGCCCTAC | -0.132 |
| AACAACTC | -0.0344 |
| GCGTGTAA | 0.0628 |
| ACGGTCCG | -0.209 |
| GGGCACAA | -0.0454 |
| GTCGAAGA | -0.0639 |
| ACGCTACT | -0.0234 |
| ATTTATAA | 0.293 |
| CAGGCAGC | -0.202 |
| AGATCATC | 0.097 |
| ATCTAATC | 0.229 |
| ACAGAAGG | -0.226 |

| Sequence | PBM E-score |
| --- | --- |
| CTTGAGTA | -0.13 |
| CTAGTAAG | -0.00378 |
| CCGGATGC | -0.197 |
| AAGGAGAA | 0.0587 |
| ATACTCTG | -0.0234 |
| ATAGTTGA | 0.1 |
| ACCCAACA | -0.195 |
| CTTGATTC | 0.0897 |
| ACGAAGAG | -0.0142 |
| AGAGCTAA | -0.0708 |
| GGTAGCAA | -0.19 |
| AGTTAGAC | 0.0891 |
| ATAGATCA | 0.145 |
| AGTCAGAA | 0.05 |
| CTGGCAAC | -0.307 |
| TATCTAGA | 0.00056 |
| ATTGTTGA | 0.279 |
| AAGTAGTG | 0.0897 |
| ATAACACA | 0.192 |
| ATGCAAGC | 0.022 |
| GAAGCAGC | -0.268 |
| AGGTAGCC | -0.199 |
| CATCGGCC | -0.18 |
| CATATTGC | 0.029 |
| ACAGCCTG | -0.0809 |

| Sequence | PBM E-score |
| --- | --- |
| CGGCACAC | 0.177 |
| CATGATGG | -0.0379 |
| CCCTAAAA | -0.118 |
| GTCGGCCA | -0.235 |
| ACCAAGCG | -0.203 |
| CCGATCAA | -0.212 |
| GGATGAAC | -0.118 |
| TAATAGTA | 0.23 |
| ATCGGAAG | 0.0884 |
| CCTAGGAG | -0.214 |
| GGGCGGAA | -0.215 |
| AACGGACT | -0.318 |
| ACGGCACA | 0.327 |
| ACATCCAA | 0.131 |
| GTCCTCCA | -0.257 |
| GTTTATTA | 0.164 |
| CAGGGAGC | -0.25 |
| CATAACTA | 0.199 |
| GAGGAGAA | -0.168 |
| CGGGTACG | -0.171 |
| CTTAGCCA | -0.021 |
| CTCAGTGC | -0.0726 |
| CAGAGCTA | -0.217 |
| AAAAGATT | 0.0616 |
| CGCACAAG | -0.113 |

| Sequence | PBM E-score |
| --- | --- |
| CAATACAA | 0.15 |
| GGTGCCTA | -0.0594 |
| CACATTTC | 0.131 |
| AGTAACAC | -0.00261 |
| CTCGGGAA | -0.117 |
| CTAGCGCA | -0.235 |
| CCAGACTA | -0.27 |
| TACATGTA | 0.105 |
| CCCCCCAC | -0.394 |
| CCAATTAG | 0.0724 |
| ATGGGACC | -0.139 |
| CTTCCCCC | -0.314 |
| ATGCATAC | 0.11 |
| CATGCCAA | 0.0621 |
| ATGAAAGA | 0.175 |
| AACTCCCG | -0.0902 |
| TTACTCAA | 0.133 |
| ACTCGGCC | -0.144 |
| GAGCCATC | -0.056 |
| CCACGAAA | 0.0402 |
| CCCTCCCG | -0.249 |
| CGACTCCG | -0.314 |
